Sequences and labels used below:
B1: tRNA (parent)
chain: CUCUCGGUAGCCAAGUUGGUUUAAGGCGCAAGACUUUAAUUUAUCACUACGAAAUCUUGAGAUCGGGCGUUCGACUCGCCCCCGGGAGAUUUUUUCCUCGAGCAA

Variants at the background level are over-represented here.

The data set covers variants of B1. Kind of data set: nonsense suppression (GFP-seq) (ratio to wild type); higher = more function; SUP4oc tRNA, yeast GFP reporter sort-seq. In short, it runs like this:
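Sorted GFP/RFP bins of yeast were each Illumina-sequenced with a phred ≥30 cutoff; the cells held a genome-integrated ochre-suppressor tRNA variant from a library with ~3% random mutations, a galactose-driven GFP ochre reporter, and RFP. Culture was in raffinose/galactose medium containing 80 mg/L adenine. Nonsense suppression, termed GFPSEQ, is the median GFP/RFP of the bins weighted by each variant's estimated cell share per bin, relative to the unmutated parent tRNA, for variants reaching ≥100 reads and ≥30 cells.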
For A24G A87U, the nonsense suppression is no more than 0.026.

As for C83U G86A, the nonsense suppression was no more than 0.026.

For the variant G10C A24U U55G A89U, the nonsense suppression was no more than 0.026.

Consider U2C G6C C12U A60G G65A, for which the nonsense suppression is no more than 0.026.

With A24C G65A U76G, the nonsense suppression is no more than 0.026.

Take U4G G7C A14G C34U C64G: the nonsense suppression is no more than 0.026.

On to A9U A23U C82G, for which the nonsense suppression was no more than 0.026.

A14G C68A C75G: the nonsense suppression is no more than 0.026.

On to C5G U76C, for which the nonsense suppression is no more than 0.026.

For the variant A31G U70C, the nonsense suppression was 0.0279.

Consider C12U G32U, for which the nonsense suppression was no more than 0.026.

Turning to C3A U8G C82A, the nonsense suppression is no more than 0.026.

Take A24G A31G C34G U55A C75A: the nonsense suppression is no more than 0.026.

Regarding A9G G65A, the nonsense suppression was no more than 0.026.

For the variant A62G C82A, the nonsense suppression is no more than 0.026.

As for A54C C80U, the nonsense suppression came out at 0.194.

As for A9G A33G C34G U55A U76A G84C, the nonsense suppression was no more than 0.026.

For C12U G19C G59C U76A, the nonsense suppression was no more than 0.026.

Regarding G19C C79A, the nonsense suppression is no more than 0.026.

In the case of U20G G65A G69A, the nonsense suppression is no more than 0.026.

On to U20A G61C, for which the nonsense suppression was 0.0711.

Consider C1A C75A G88C, for which the nonsense suppression is no more than 0.026.

For A33G C56G, the nonsense suppression was no more than 0.026.

Turning to C75G G86A, the nonsense suppression is no more than 0.026.

Take A60C C81A A87U: the nonsense suppression is no more than 0.026.

With U22G A54U U57C, the nonsense suppression is no more than 0.026.

Regarding A9G A60C C68U G73A, the nonsense suppression was no more than 0.026.

As for G25U C34U G59A, the nonsense suppression stood at 1.15.

Consider C34U U57C U76A, for which the nonsense suppression is no more than 0.026.

For U57A G88C, the nonsense suppression was no more than 0.026.

For U8A A24C, the nonsense suppression was no more than 0.026.

Regarding U4A G85A, the nonsense suppression was found to be 0.0324.

Take C12A G25A G28U G85A: the nonsense suppression is no more than 0.026.

In the case of C5A G18C A54C, the nonsense suppression is no more than 0.026.

Turning to C29U C34U G66C, the nonsense suppression was no more than 0.026.

As to G7A U20G, the nonsense suppression was no more than 0.026.

In the case of C27A U70C, the nonsense suppression was no more than 0.026.

Regarding G10A U63G, the nonsense suppression was 0.0314.

Take A23C A60G: the nonsense suppression is no more than 0.026.

Regarding G6C G84C, the nonsense suppression was no more than 0.026.

Consider A60C C79A, for which the nonsense suppression is no more than 0.026.

G78C G84U: the nonsense suppression was found to be 0.0271.

In the case of C1G G78C, the nonsense suppression is no more than 0.026.

For G32C C34G C72A, the nonsense suppression was no more than 0.026.

Consider U8A C77U A89G, for which the nonsense suppression was no more than 0.026.

Regarding A23G A60C, the nonsense suppression came to 0.241.

C68G U71A: the nonsense suppression is no more than 0.026.

Consider G25C G88C, for which the nonsense suppression was no more than 0.026.

In the case of U22C U58C G84U, the nonsense suppression was no more than 0.026.

With A14U G26C U57C, the nonsense suppression is no more than 0.026.

Regarding G18C G26U G67U, the nonsense suppression is no more than 0.026.

Consider G85U A87C A89G, for which the nonsense suppression was no more than 0.026.

In the case of C5A U21C C79G, the nonsense suppression was no more than 0.026.

For the variant C12A U55A, the nonsense suppression is no more than 0.026.

Regarding U20A U22C, the nonsense suppression was 1.11.

For the variant G66U G86C, the nonsense suppression is no more than 0.026.

As to C12G U17A, the nonsense suppression is no more than 0.026.

Take C34A A60G U70C: the nonsense suppression was no more than 0.026.

As to A13C U17A A62G C79G, the nonsense suppression was no more than 0.026.

With G25A A30G A62G A74U C79A, the nonsense suppression was no more than 0.026.

Consider C12G U55A C56A, for which the nonsense suppression was no more than 0.026.

Consider U20C G86A, for which the nonsense suppression was no more than 0.026.

In the case of U76C G88U, the nonsense suppression is no more than 0.026.

As to C27A G28A U63A, the nonsense suppression was no more than 0.026.

A14U G88C: the nonsense suppression was no more than 0.026.

As to A23G G25U, the nonsense suppression is no more than 0.026.

As for C81G G84A, the nonsense suppression is no more than 0.026.

For the variant G28C G73U U76A, the nonsense suppression is no more than 0.026.

Take U20C U58G C72A G84A: the nonsense suppression is no more than 0.026.

For the variant G6A A14G A31G, the nonsense suppression is no more than 0.026.

For the variant A24C C56U, the nonsense suppression is no more than 0.026.

For the variant U4C A14U, the nonsense suppression is 0.0343.

Consider A14G A23U U76C, for which the nonsense suppression is no more than 0.026.

Regarding A13C U71A C72U U76C A89C, the nonsense suppression is no more than 0.026.

Regarding C75A G78A, the nonsense suppression stood at 0.698.

G7U C27G A33U G73C: the nonsense suppression is no more than 0.026.

For the variant U17A U20C C83A, the nonsense suppression is no more than 0.026.

As for U20C U21G C27A U57C G78A, the nonsense suppression was no more than 0.026.

With G6U C68U, the nonsense suppression was no more than 0.026.

On to A54G C56G G59C U71A, for which the nonsense suppression is no more than 0.026.

Consider G6C U71C G73A, for which the nonsense suppression is no more than 0.026.

In the case of U20C C72U, the nonsense suppression was no more than 0.026.

As for G59C G84A, the nonsense suppression was no more than 0.026.

On to C1U U17A U58G G73A G84C, for which the nonsense suppression is no more than 0.026.

Turning to C12G A33U U55C C72A G73A U76C, the nonsense suppression is no more than 0.026.

On to A13C U55C, for which the nonsense suppression was determined as 0.827.

With C29U A33C, the nonsense suppression is no more than 0.026.

Regarding G18C A24C, the nonsense suppression is no more than 0.026.

For the variant G26A C56A, the nonsense suppression is no more than 0.026.

As to U8G C12U G66U, the nonsense suppression is no more than 0.026.

Take G10U A31G: the nonsense suppression was no more than 0.026.

For U8G C34A G61A A62U C80A C81U, the nonsense suppression is no more than 0.026.

G28U C79U: the nonsense suppression is no more than 0.026.

U63C G67U G85C: the nonsense suppression is no more than 0.026.

U57G C68G: the nonsense suppression was no more than 0.026.

As to C29U G65A C81U, the nonsense suppression was 1.14.

Regarding G66A U76C C81U, the nonsense suppression is no more than 0.026.

As to C81G A87G, the nonsense suppression worked out at 0.0415.

Regarding A30U G66C C82G, the nonsense suppression is no more than 0.026.

On to G6U C80U, for which the nonsense suppression is no more than 0.026.

Turning to C56A U63G C80G, the nonsense suppression is no more than 0.026.

For G66C A74U A87C, the nonsense suppression is no more than 0.026.

C5U G7U: the nonsense suppression is no more than 0.026.

In the case of C5G C11U, the nonsense suppression is no more than 0.026.

On to G32A C75A, for which the nonsense suppression is no more than 0.026.

Consider U16C A30G U63A G85A G86C A87U, for which the nonsense suppression is no more than 0.026.

Turning to G25U A30U U71C, the nonsense suppression is no more than 0.026.

As to A30U A62U U71A, the nonsense suppression is no more than 0.026.

C75A C82G: the nonsense suppression is no more than 0.026.

With C72G C79G, the nonsense suppression was no more than 0.026.

C5G G19U G26A A33G U76G: the nonsense suppression was no more than 0.026.

As to G7U G10U C80U G86C, the nonsense suppression is no more than 0.026.

In the case of A23G G59U A60C C72G, the nonsense suppression is no more than 0.026.

As for G15U A23G, the nonsense suppression is no more than 0.026.

With U8A G10C, the nonsense suppression is no more than 0.026.

With G61C G69U A74C, the nonsense suppression was no more than 0.026.

For G6U C11A C29A, the nonsense suppression is no more than 0.026.

Consider C5G G61U U70C G73U C77U, for which the nonsense suppression is no more than 0.026.

With C27A U35C G61A, the nonsense suppression is no more than 0.026.

Take C5G A33U U63G: the nonsense suppression was no more than 0.026.

As to G19A C82G, the nonsense suppression was no more than 0.026.

Turning to C1A C34U A62G, the nonsense suppression was no more than 0.026.

On to C5U A30G A31U G59U G84A, for which the nonsense suppression is no more than 0.026.

Regarding G7U A54U, the nonsense suppression is no more than 0.026.

In the case of U4G G19U U71A U76G A89C, the nonsense suppression is no more than 0.026.

Consider G26U G67C U70G C72A, for which the nonsense suppression is no more than 0.026.

Regarding A23U C72A C77G, the nonsense suppression is no more than 0.026.

U16C U55A C75A G88C: the nonsense suppression was no more than 0.026.

Regarding C34A, the nonsense suppression is no more than 0.026.

As for G7U U35G, the nonsense suppression was no more than 0.026.

As for C11U A60U G73C, the nonsense suppression is no more than 0.026.

With G15U A74C, the nonsense suppression is no more than 0.026.

For the variant U4A U8G, the nonsense suppression is no more than 0.026.

A13C G73U: the nonsense suppression is 0.0412.

Consider A54U A62C U70A, for which the nonsense suppression was no more than 0.026.

For the variant G25U C82U, the nonsense suppression is no more than 0.026.

For the variant C12G G15A G19U, the nonsense suppression is no more than 0.026.

With C3U G59C G61A, the nonsense suppression is no more than 0.026.

A23U G84C: the nonsense suppression is no more than 0.026.

As to A13U G65U G66C C82G, the nonsense suppression was no more than 0.026.

Take C3A U70C: the nonsense suppression was no more than 0.026.

For the variant C11G G59A, the nonsense suppression was no more than 0.026.

For the variant G15U U17A U55C, the nonsense suppression was no more than 0.026.

C3A A9G G10A: the nonsense suppression is no more than 0.026.

As for U17C G26A U71C, the nonsense suppression was no more than 0.026.

With A14G U71G G78U, the nonsense suppression was no more than 0.026.

For the variant U20C C34U U35C, the nonsense suppression was no more than 0.026.

Consider A13C G61U A87C, for which the nonsense suppression was no more than 0.026.

For A9G A13C A33C G78A, the nonsense suppression is no more than 0.026.

Regarding G6U U20A, the nonsense suppression was no more than 0.026.

As for G6C U20A A54C U71G G88A, the nonsense suppression is no more than 0.026.

In the case of C64G G69C C80U, the nonsense suppression was no more than 0.026.

In the case of A24C G85C, the nonsense suppression was no more than 0.026.

Consider U2A C3U A87C, for which the nonsense suppression is no more than 0.026.

For the variant A9G G18C A89U, the nonsense suppression is no more than 0.026.

As for C5A G6U G7U, the nonsense suppression is no more than 0.026.

Regarding G10U C72U, the nonsense suppression is no more than 0.026.

For the variant C11U G18U A60G, the nonsense suppression is no more than 0.026.

C1A A31G: the nonsense suppression is no more than 0.026.

Take C12A U21G A33G U63C: the nonsense suppression is no more than 0.026.

For C27A G28C C29A, the nonsense suppression was no more than 0.026.

Consider C11G U17A G28A U55C, for which the nonsense suppression was no more than 0.026.

For C3A G7U U35G, the nonsense suppression is no more than 0.026.

With C5A C77A, the nonsense suppression was no more than 0.026.

For C56A G67U G86C, the nonsense suppression is no more than 0.026.

In the case of C1A U55A, the nonsense suppression was no more than 0.026.

With U20G G61A G67U C68G, the nonsense suppression was no more than 0.026.

The values above are taken from the RNAGym collection of RNA variant scans (doi:10.1101/gad.245936.114).
